Results are given in words; binding and its absence hold for the method and conditions named. Binding seen in cells or lysates may run through a third protein. Some results given as binding are weak or reduced against the parent protein; the word gives no strength. Tags and fused reporters may be left off the sequences shown.
Target: FLAG-tagged Tor1 (catalytic subunit of TORC2) (Schizosaccharomyces pombe) (UniProt O14356)
Experiment: co-IP; anti-FLAG immunoprecipitation from S. pombe extracts, immunoblot with anti-GFP; cells grown vegetatively in EMM2 for 24 h at 26°C, and G0 phase cells after 24 h nitrogen starvation at 26°C; extraction buffer 25 mM HEPES–KOH pH 7.5, 200 mM NaCl, 10% glycerol, 0.1% NP-40, 1 mM PMSF; non-FLAG-tagged strains as control

The chains behind the UniProt entries cited, without tags or fusion partners.
UniProt O14356: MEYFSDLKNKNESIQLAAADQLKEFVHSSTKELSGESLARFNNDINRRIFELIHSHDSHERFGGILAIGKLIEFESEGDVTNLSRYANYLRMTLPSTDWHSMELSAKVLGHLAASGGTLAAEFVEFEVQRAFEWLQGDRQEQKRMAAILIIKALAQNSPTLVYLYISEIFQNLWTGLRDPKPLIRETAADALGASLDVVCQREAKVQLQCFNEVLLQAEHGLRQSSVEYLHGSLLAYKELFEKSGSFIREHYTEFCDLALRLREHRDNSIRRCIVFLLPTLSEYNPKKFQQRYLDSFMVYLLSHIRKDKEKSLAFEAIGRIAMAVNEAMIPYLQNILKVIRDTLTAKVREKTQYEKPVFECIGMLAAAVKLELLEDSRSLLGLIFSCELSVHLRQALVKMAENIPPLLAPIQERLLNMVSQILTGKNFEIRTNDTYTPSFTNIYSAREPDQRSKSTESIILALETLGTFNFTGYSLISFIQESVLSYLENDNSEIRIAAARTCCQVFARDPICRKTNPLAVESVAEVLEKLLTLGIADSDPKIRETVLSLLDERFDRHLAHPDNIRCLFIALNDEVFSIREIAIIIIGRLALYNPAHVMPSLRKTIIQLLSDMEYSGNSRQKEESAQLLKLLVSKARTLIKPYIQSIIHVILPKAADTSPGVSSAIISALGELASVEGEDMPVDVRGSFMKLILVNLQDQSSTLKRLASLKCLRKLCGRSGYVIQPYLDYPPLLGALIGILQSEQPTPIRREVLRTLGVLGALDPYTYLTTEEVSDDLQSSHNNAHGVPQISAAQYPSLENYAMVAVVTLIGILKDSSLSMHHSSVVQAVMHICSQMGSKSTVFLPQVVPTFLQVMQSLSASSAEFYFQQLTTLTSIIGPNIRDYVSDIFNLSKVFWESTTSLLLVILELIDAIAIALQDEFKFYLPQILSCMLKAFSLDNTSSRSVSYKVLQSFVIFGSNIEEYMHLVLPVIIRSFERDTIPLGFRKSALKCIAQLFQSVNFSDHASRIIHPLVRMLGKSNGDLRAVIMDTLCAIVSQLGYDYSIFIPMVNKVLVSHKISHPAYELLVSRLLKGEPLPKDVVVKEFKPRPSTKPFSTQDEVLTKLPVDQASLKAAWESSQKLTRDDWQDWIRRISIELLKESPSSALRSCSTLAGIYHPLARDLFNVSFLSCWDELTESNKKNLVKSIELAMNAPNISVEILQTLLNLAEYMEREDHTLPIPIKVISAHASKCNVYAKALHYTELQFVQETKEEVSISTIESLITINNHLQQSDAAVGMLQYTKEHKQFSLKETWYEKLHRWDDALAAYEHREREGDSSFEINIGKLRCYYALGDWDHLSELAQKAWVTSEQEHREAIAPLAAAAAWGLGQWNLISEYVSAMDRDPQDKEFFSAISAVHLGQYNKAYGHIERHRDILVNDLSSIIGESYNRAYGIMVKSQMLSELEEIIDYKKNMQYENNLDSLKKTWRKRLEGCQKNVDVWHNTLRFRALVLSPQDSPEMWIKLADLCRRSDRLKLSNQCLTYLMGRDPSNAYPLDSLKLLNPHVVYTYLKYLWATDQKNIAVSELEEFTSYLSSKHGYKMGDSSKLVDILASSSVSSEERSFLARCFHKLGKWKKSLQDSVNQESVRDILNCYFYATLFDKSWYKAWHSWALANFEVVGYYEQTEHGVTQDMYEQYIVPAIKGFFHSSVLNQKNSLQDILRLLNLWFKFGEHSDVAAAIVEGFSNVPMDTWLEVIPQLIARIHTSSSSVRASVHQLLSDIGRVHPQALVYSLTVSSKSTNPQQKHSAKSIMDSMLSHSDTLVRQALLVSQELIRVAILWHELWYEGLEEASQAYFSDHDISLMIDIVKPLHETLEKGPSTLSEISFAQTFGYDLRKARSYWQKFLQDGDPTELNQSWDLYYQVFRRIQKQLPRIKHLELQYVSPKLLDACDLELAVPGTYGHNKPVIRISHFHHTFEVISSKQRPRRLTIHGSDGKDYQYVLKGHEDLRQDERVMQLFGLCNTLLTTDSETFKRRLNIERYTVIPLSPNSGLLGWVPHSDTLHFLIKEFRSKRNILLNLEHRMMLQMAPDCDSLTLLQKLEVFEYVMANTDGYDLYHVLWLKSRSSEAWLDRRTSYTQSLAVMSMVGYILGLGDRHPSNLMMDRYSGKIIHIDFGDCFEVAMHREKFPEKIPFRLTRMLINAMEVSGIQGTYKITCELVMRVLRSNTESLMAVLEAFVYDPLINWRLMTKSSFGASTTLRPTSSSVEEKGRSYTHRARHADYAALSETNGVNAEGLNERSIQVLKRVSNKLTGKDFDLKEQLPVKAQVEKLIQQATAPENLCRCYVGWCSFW

Row | Binder | binding
1 | GFP-tagged Tco89 (TORC1 regulatory subunit) (protein, UniProt O74428 1-451) MERPSLSRRTSSSTVSTDGEGVYSRSTKERKRNFIVNSRLKRGGGHVRVNRSGRLGSVTMRPSALTRAHSQNPNSSLVNNSSAVSHLTKQRSLNDLHELNGPKHVAKNGLIPLTQRKPNCVWDDAPVDNDSTAGNLDSDSALPTPSVTTNEAADSSRASSPVTRVVAVHDNKKKIINSNISNAPPFNNTDVQASARPPAAGQDDSAADASTTKSSPVHNEVMAEPLPHSNNREVTQATNQPKWQIHSGSDIASEPPTLSRGNSLSLLANRKVPSTNVKKSQAELYDLGSSTSRTQQKLLIQRASSKFDIVEDDMDTNPSKRFSNPHTKHIMDLVRTQYRNVLRTRELIPEFLEKIRSSYSNNQNFDSQNAFNTSAAGTAGTREETISNGQNGIVASAETSKKDDGVQSASLNASMSARSHARQRSIHVPKTRKDTDYESIHQKLLQLWSQG | no binding
2 | GFP-tagged Ste20 (TORC2 regulatory subunit, Rictor homologue) (protein, UniProt Q09743 1-1309) MKPVRRGQTDTALDISSHAKTNGDFIKKMNTTDSKRLKLLEDLKGKLEVECKIRDGAETLLQVFDTNFKKETKERKEMLKKKCTDELESSKKKIEELVSSIESFQGENGEAKTGSTSLTRSASATVSRKSSLQEKYSTRFSYKAGCSDSCSVTVSGTGELIGPTRNAHSNLTPTVIQRIDFENVNEKNNSSSEDTQPNGKRPSSLQSNFSQFPLNPWLDNIYKACLEGSMKDVIDSSNNLCEYLHEHSDPAYAKNFSLITPTILSMLELNVSEVTASVYRLLRHLFLDATAFSCCQMLNLPWILSKSLLSGTDAYQIEREQAFRLIRTLYFLSSTEGHEDYLSGITRTIISICEHVSDVSRGIAVETLIELMIIRPKILFKANGLRVLMISLIDGSISENLAASAALALVYLLDDPESACYVNLPYDIGILLSPFTSSSSRDTFNSSEEQSEQAAKAMKSSAKVASVLLNSWSGLLALSTNDFQALRSIVDTLRVPSFAPRSDVIDLFFLIFQVEYSSWSESFLAGKRLTVVKNQAVSNDDNINMVNIPDGSNKKYMSLRQHFTAVLLFIFLELGLVESIVCMIRASDDPSASRKATYLLGEVLRLSDELLPIHLGAKIQSLPSLFNMASQFTAEDRFVATSVLQSIESLNRVKFHSATQPFSQTTSLLFKEQKTDGSFRGQRQVEHVKLKMGMQIDDSHFRSMLAETNVLATKNYQKWRWDTLVQIMEGPLLSPKRIDETLRTTKFMRRLLAFYKPFSNRFSSIQNTKPNQKFIKVGCLVFRTLLANPEGVKYLSESKVIKQIAESLSQIDGYSEQVSEPIFSNSRLQKTLTHGYFPMLKVLSSQKEGHAIMERWRIFTTLYHLTELRNRDDLIIIFLTNLDYRLEGHTRIIFSKALNTGQQAVRLTATKHLAALINSESANDNLNHWAISLLIFQLYDPCLEVCKTAVKVLNEVCARNENLLAQVVQLQPSLAHLGEIGSPLLLRFLATTVGFHYLSEINFIEHELDNWYHHRNIDYVDLLEQNFFLSFVSNLKIIDKKNNEPDENILPLHFYGELVKSPQGCEVLESSGHFESFMGTLVEFYDKPLGNEAIRQLKSALWAIGNIGKTDQGITFLINHDTIPLIVKYAENSLIPTVRGTAYFVLGLISRTSKGVEILESLHWYSLMSLMGTSQGICIPRHAGQVLSTPRRNVEFVNERVPTPEFSSLLSSLTNSEREVIRLVSNLSNHVLTNESARQLTKIRSKNAKVFSSKRLVKACMTILGKFHYRVQIQQFVFELFPYSVLLSSSTSQDLNESPSRPNNLSISA | binds
3 | GFP-tagged Mip1 (TORC1 regulatory subunit, Raptor homologue) (protein, UniProt P87141 1-1313) MNDRISEVSGSSRARRSVLSYGTTETGSDRYTENSNIATENGVDTASSMIDGIQSGFPQPRHGFEEEYNNAEYINMLEQVFYMYYTDKRHRGVISKKNAEPTETIHDWRMRERLKTVSAALLVCLNIGVDPPDVIKPNPAAKYECWIDPFSLPASKALEAIGKNLQQQYETLSMRTRYRHYLDPAIEEVKKLCIGQRRNAKEERILFHYNGHGVPMPTASGEIWVFNKNYTQYIPVSLYDLQSWLGAPCIYVYDCSAAGNIIVNFNRFAEQRDKEALRIAKQNPNVLAMPSHTSCIQLAACGPKETLPMNPDLPADLFTSCLTSPIEISVRWYVLQNPFPNKLNLNMLLKIPGRLQDRRTPLGELNWIFTAITDTIAWNVFPKHLFRRLFRQDLMVAALFRNFLLAERIMLVHSCHPQSSPELPPTHDHPMWNSWDLAIDNCLSQLPDMLDAESKGIAYEYKHSTFFSEQLTAFEVWLSQGLISRKPPDQLPLVLQVLLSQVHRLRALILLSKFLDLGVWAVDLALSIGIFPYVLKLLQSPAIELKPVLVFIWARILAVDDSCQADLLKDNGYGYFVQILNPNSSIFPSSNISEHRAMCAFILSVFCRGFPQGQLACLNPQVLSHCLSHLNSPDSLLRQWACLCISQLWENYSEAKWSGTRDNAHVKLAEIIVDSVPEVRASVLTAFTTFLGFPEKTEEVVAVETYIAIAALAALSDASPLVRHELVIFLSHFVVNYKKQLMVVAYESSLADILEKKNHNSISASTIYETVWQAVLVLAADPSIEISLAAEAIINYVYQSMLNSELRESFLAFLLQHLPALHKASLSKDTDTNSVTSDPKPHPFVPSVSENKILNRSFSLTRSLKGLALSLAGSDRASELLSLNGENKPAESNLNHLTSAKVPGPPAFNELEYQSELDMPLTSYLFDWSRKYFTEPQMRPNEDDEPGSICYNQRLWRRNRNEKLIYRTRPLAEYSTNGRWNQQLMTFNNTIAPRKLMFHQFEDQLITLGDKDIIQVWDWRRNRCLNSFKTSASATTNVTDMQLLNEDDVALLMTGSSDGTIKLYRDYENEKVELVTSWNSLSDLVFGDRNASLLMSWQQNCGHLLVAGDVRVIRIWDASKEICYANLPVRSSNSITSLTSDLVGCNIIVAGFSDGVLRVYDKRLPARDSLTDVWKEHSSEIVNVEMQSSGMRELISASSDGEVKLWDIRMNHSLQTFSTDNSGLTSLTVHSHAPVYATGSSNQSIKIWDTLGQNINTFRENPRFLNQPKPSSLMCLKFHPHHLLLACGDNTDSRVNLYSCTKNEIHTDSPNEF | no binding
4 | GFP-tagged Bit61 (TORC2 regulatory subunit) (protein, UniProt O74547 1-422) MVGRGSFSSTSSASSINWIPKNTKTSIESVSNTISLSENGQNQDLETVTTKESNVGDSDTTENIKSPFNGQWPFSRRSSQSSSHPVFEETHWSKHSKRPGKLNVLTPTSPSNVNAEVQSISTKTQLSLLNLSPHKHKKPKDGLDLSALQKTLNGSRNFLRGRRDAGGIFGASIPQSLVTNQIINGFGAASLAFAKLGKVRSPLEGRFNLVPISADETWLIVESEVCSLYSGEALHYSLEDLNGILILHLQALIRDTKMNEFVGHLETLFRKATKCLSDSLSPVPEELFLNRIIETWLFFFSSVLPYVQGVFLPIKTKLFDEQEKTQLPYEVNEFCSTNREKLNVHRLALMTFRDYMVLPIANRIQICIGRAESAENALDNAGEVFARLFQILSLLASVRTNDSKEQEITNLATKVRCLLIAS | binds
5 | GFP-tagged Sin1 (TORC2 regulatory subunit) (protein, UniProt Q9P7Y9 1-665) MELTREKVLLLTFLRMQYSHILPDSIENRVISTEAPEWELDKSLQDLLIHDYDYSKTSFSSSPPIVANDTVSNVRKPSDTKQVNGAGGQVNHSRAEDSDYATSDLSESSDVGDDDNSCIFSFSKVPMQKDVASIKEEERLDPKISTLNNIDAIANLKLTNMVESSQAVNLTSSKQSSINQQSSVSTDYDDLRSISEESFHLSQGEIPLTFPMNSSLTDTEADAVVAVDALFPGKQRGTHNTVNKARSVSNAKAPTSALRALLEHKENSSQNGPLAENFATFSGHAESNALRLNIYFPSSESPSKPLFVELRKNVLVSEAIGYILLQYVNQQLVPPIEDEAQNPNYWNLRIVEDDGELDEDFPALDRVGPLSKFGFDAFALVKATPAQIKENQAAYPFKSKHPTSIPEANNKTHIRHTSSTSSQSQKQAQDVKDTLNTSHVVQVRLPPYGDNARFCNIEISKTTRLAMVLNQVCWMKQLERFKYTLRVAGSDTVLPLDKTFSSLDGNPTLELVKKKVRDKKGSTQQLPTSSPQNSVYGSIKKDAQSSTYNATDIMSSNTYQEFLVWKRQPVSFMGRHERLLAIDGEYVHIMPSESKNIFETPKTSSIHAGSIILCKQSKKSPCNFKMIVSKNRETKRYDFEVLSALEAAIIVSRIRALMNTVKKIN | binds

— PMC3352084
